In the supplement of paper PMC10369915:
Some of the results follow. Cut-off read from the data, not from the text of the source: active = 3.2 or more and inactive = the rest. Only a few entries rise above the background.

Columns and labels:
Assay in all cases: enrichment score (SH2-bound / input frequency) (ratio); bacterial display of known human phosphotyrosine sites (pTyr-Var adds point mutants) read by sequencing; higher = stronger binding; tyrosines were phosphorylated by kinases first
Conditions in all cases: peptide library: pTyr-Var
[1] = molecular target: SHP2 C-SH2 domain E139D
[2] = molecular target: SHP2 C-SH2 domain wild-type
[3] = molecular target: SHP2 N-SH2 domain L43F
[4] = molecular target: SHP2 N-SH2 domain T42A
[5] = molecular target: SHP2 N-SH2 domain T52S
[6] = molecular target: SHP2 N-SH2 domain wild-type

Measured: enrichment score
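Note: displayed peptides selected on beads carrying the immobilized SH2 domain, with library peptides lacking any tyrosine serving as negative controls.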

B1: ABCD1_Y181_Q178E (peptide)
chain: SQETYYRVSNM
inactive: [1] 0.822 | [2] 1.05 | [3] 0.912 | [4] 0.675 | [5] 0.932 | [6] 1.13

B2: ABL2_Y515_R519I (peptide)
chain: CPPKVYELMIA
inactive: [1] 0.912 | [2] 0.84 | [3] 0.93 | [4] 0.727 | [5] 0.924 | [6] 0.794

B3: ABLIM1_Y439 (peptide)
chain: PSAEGYQDVRD
inactive: [1] 0.522 | [2] 0.648 | [3] 0.537 | [4] 0.328 | [5] 0.382 | [6] 0.654

B4: ABCD1_Y281 (peptide)
chain: KGELRYMHSRV
inactive: [1] 1.65 | [2] 1.44 | [3] 1.37 | [4] 1.18 | [5] 1.23 | [6] 1.39

B5: ABL2_Y80_R78H (peptide)
chain: ALHHPYGCDVE
inactive: [1] 1.26 | [2] 1.58 | [3] 1.37 | [4] 1.22 | [5] 1.38 | [6] 1.33

B6: ABCG8_Y209_V210M (peptide)
chain: RVGNMYMRGLS
inactive: [1] 1.49 | [2] 1.17 | [3] 1.17 | [4] 1.25 | [5] 0.809 | [6] 1.18

B7: ACAD9_Y611 (peptide)
chain: LEKRAYICAHP
inactive: [1] 0.7 | [2] 0.977 | [3] 0.922 | [4] 0.757 | [5] 0.627 | [6] 1.23

B8: ABHD12_Y345_A349T (peptide)
chain: LGRKLYSIATP
inactive: [1] 0.736 | [2] 0.457 | [3] 0.776 | [4] 0.62 | [5] 0.756 | [6] 0.753

B9: ACAD9_Y611_L606H (peptide)
chain: HEKRAYICAHP
inactive: [1] 0.689 | [2] 0.795 | [3] 0.765 | [4] 0.821 | [5] 1.01 | [6] 0.709

B10: ABCD1_Y181_Q178E_YF (peptide)
chain: SQETFYRVSNM
inactive: [1] 0.78 | [2] 0.666 | [3] 0.763 | [4] 0.713 | [5] 0.557 | [6] 0.862

B11: ABCC8_Y1353_L1349Q (peptide)
chain: NQSVRYDSSLK
inactive: [1] 0.636 | [2] 0.393 | [3] 0.594 | [4] 0.533 | [5] 0.665 | [6] 0.666

B12: ABL2_Y515 (peptide)
chain: CPPKVYELMRA
inactive: [1] 0.939 | [2] 0.934 | [3] 1.06 | [4] 0.75 | [5] 1.06 | [6] 1.05

B13: ABCD1_Y180 (peptide)
chain: FSQQTYYRVSN
inactive: [1] 0.814 | [2] 1.07 | [3] 1.51 | [4] 0.978 | [5] 0.866 | [6] 0.835

B14: ABL2_Y80 (peptide)
chain: ALHRPYGCDVE
inactive: [1] 0.897 | [2] 0.805 | [3] 0.642 | [4] 0.768 | [5] 0.774 | [6] 0.845

B15: ABCD1_Y281_G277R (peptide)
chain: KRELRYMHSRV
inactive: [1] 2.21 | [2] 1.79 | [3] 1.82 | [4] 1.54 | [5] 2.21 | [6] 1.98

B16: ABCD1_Y181_R182P_YF (peptide)
chain: SQQTFYPVSNM
inactive: [1] 0.968 | [2] 0.813 | [3] 0.716 | [4] 0.875 | [5] 0.769 | [6] 0.847

B17: ABL1_Y167_R166K (peptide)
chain: SISLKYEGRVY
inactive: [1] 1.16 | [2] 1.09 | [3] 1.06 | [4] 0.938 | [5] 1.03 | [6] 1.14

B18: ABCD1_Y281_G277W (peptide)
chain: KWELRYMHSRV
inactive: [1] 1.31 | [2] 1.41 | [3] 1.35 | [4] 1.29 | [5] 1.45 | [6] 1.68

B19: ABL1_Y139_L140P (peptide)
chain: RNAAEYPLSSG
inactive: [1] 0.709 | [2] 0.505 | [3] 0.532 | [4] 0.625 | [5] 0.603 | [6] 0.546
